From the supplement of paper PMC5499739
The full ranking holds about 16,000 sequences; the median of “Z-score” is about -0.37, and the highest 2% start at about 3.1. The list shows a part of the results.

system: RBM10 RRM1-ZnF-RRM2 (GST-tagged construct); test: RNAcompete 7-mer binding Z-score; higher = stronger binding preference
Method in brief: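 GST-tagged RBM10 constructs (20 pmol) and a designed pool of 241 399 RNAs up to 41 nt (1.5 nmol) were allowed to bind for 30 min at 4°C in 1 ml Hepes pH 7.8 buffer with glutathione Sepharose beads. After four 2-min washes at 4°C, bound RNA was identified by microarray hybridisation. Enrichment was scored per heptamer motif as a one-sided Z-score across the probes containing it.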

Row | Sequence | RNAcompete 7-mer binding Z-score
1 | UUGCUGA | -0.486
2 | UUAGAAA | -0.246
3 | CCUCGGC | -0.701
4 | AUAUUGG | 0.931
5 | CAUUGGA | 0.396
6 | CUAUCGC | -0.744
7 | CUAUCGA | -0.781
8 | AAGAAAG | 1.12
9 | UGUAGCG | 0.527
10 | CGAACUG | -0.151
11 | ACCGUCA | -0.697
12 | UCCUGGA | -0.439
13 | CGGGCGC | 0.359
14 | GCCUUGG | -0.0816
15 | UACUGUU | -0.712
16 | GGUGAGU | 2.05
17 | GCUACUC | -0.741
18 | UCAGCUU | -0.905
19 | AUGCGGG | 2.51
20 | AUUUUAA | -0.825
21 | CUAAGUA | -0.136
22 | GCUCGGG | 0.432
23 | UGAUGCA | 0.0896
24 | GUAUGUA | 0.461

Row | Sequence | RNAcompete 7-mer binding Z-score
25 | CGUUGAU | -0.449
26 | GGGCGAA | 2.68
27 | GCUUGCA | -0.653
28 | GCGAUGA | 0.745
29 | CACCGUA | -0.668
30 | ACGACUA | -0.475
31 | GUAUAAC | -0.147
32 | AAGAGUU | 0.421
33 | UCAAGCA | -0.409
34 | CCAAUAA | -0.657
35 | GCGGGCU | 0.953
36 | GACCUGA | -0.894
37 | UUAGUCA | -0.42
38 | CCAGCAC | -0.431
39 | UAAUCUU | -0.697
40 | UGGGCUC | 0.778
41 | UAUUGUA | -0.446
42 | AUCCAAC | -0.755
43 | CCACCUA | -0.686
44 | CAGUGAC | -0.366
45 | GCUCCUC | -0.613
46 | AGUUGGU | 1.56
47 | UAAUAUG | -0.176
48 | UAUACCG | -0.511

Row | Sequence | RNAcompete 7-mer binding Z-score
49 | AUGCACC | -0.77
50 | GACUCUA | -0.715
51 | AUCCUAA | -0.905
52 | AACUUCG | -0.592
53 | CGCUUAU | -0.81
54 | GCCUAGA | -0.712
55 | GCAACGU | 0.0859
56 | CCUUUCG | -0.857
57 | AGUGGUU | 2.16
58 | GGUUCCA | 0.239
59 | GUCUGCG | -0.42
60 | CCCGCGG | 0.232
61 | GGUUGUU | 0.654
62 | GUGACCG | 0.133
63 | GCUGAGU | 0.0131
64 | CGGGUCU | 0.432
65 | CCGAAUG | -0.657
66 | UUAUCGU | -0.449
67 | AGCCCUC | -0.905
68 | UGGAACC | 0.683
69 | AGCCAAU | -0.195
70 | ACUGUAG | -0.133
71 | UCUUCGU | -0.606
72 | UAACCGC | -0.635

Row | Sequence | RNAcompete 7-mer binding Z-score
73 | GACCACA | -0.453
74 | GAGUAGC | 0.443
75 | GACUGUA | -0.5
76 | CGAGUGG | 2.32
77 | CCCUUUC | -0.887
78 | UUGCAGG | 0.603
79 | CGUCUCC | -0.657
80 | CUCGAAC | -0.726
81 | UUCCGGC | -0.683
82 | GGUGCCU | 0.0823
83 | CCCCUCG | -0.573
84 | UUUUGUU | -0.544
85 | GCCUGGG | 0.275
86 | AUAGAAC | 0.29
87 | GCCUGUC | -0.73
88 | CAUUCCA | -0.697
89 | GGCAUUG | 0.669
90 | ACUGUAC | -0.748
91 | AUACAUC | -0.533
92 | UCAAACG | -0.326
93 | AUUGUAC | -0.584
94 | GAUUGGC | 0.927
95 | CGGCAUU | -0.398
96 | UGUUACC | -0.668

Row | Sequence | RNAcompete 7-mer binding Z-score
97 | UCGACCA | -0.566
98 | UAAGUGU | 0.00216
99 | UCUACAC | -0.653
100 | CCAGAUU | -0.799
101 | UCAGCCC | -0.737
102 | GAGUCAC | 0.00944
103 | UACGCAU | -0.286
104 | CACCAGC | -0.562
105 | AAUUCUA | -0.602
106 | AAGCUUC | -0.679
107 | ACUCGCU | -0.712
108 | CUUCUUA | -0.755
109 | CUUGCUC | -0.89
110 | UAGCCUG | -0.788
111 | GACGAAA | 0.33
112 | UACUACG | -0.522
113 | GAUUCUG | -0.537
114 | UAAGUUU | -0.464
115 | UUAGACA | -0.147
116 | AGGUAGA | 2.42
117 | CGCAGGG | 1.78
118 | UAAUACC | -0.599
119 | UCAGGGC | 1.11
120 | GAGUAAA | 0.796

Row | Sequence | RNAcompete 7-mer binding Z-score
121 | GUUGACU | -0.242
122 | GCAUAAG | 0.115
123 | AGAAUCC | -0.803
124 | GCGAAAU | -0.0488
125 | UUGAUCA | -0.435
126 | UGUCAAA | -0.369
127 | AGUUCCU | -0.77
128 | AUGCAAU | 0.0532
129 | GUCAGGG | 1.81
130 | UUAAAAU | -0.482
131 | AGAGAAG | 1.63
132 | CCGUGGC | -0.067
133 | CAUCAUG | -0.548
134 | GGGUGGG | 4.11
135 | UCGGCAC | -0.431
136 | UCACUCU | -0.89
137 | UGGCCCC | -0.333
138 | UUCGUAU | -0.592
139 | CCAACUA | -0.668
140 | GAUCUAA | -0.584
141 | AUAUCAG | -0.136
142 | GGCUCGG | 0.581
143 | GGAGCGG | 4.19
144 | GAGAAGC | 0.614

Row | Sequence | RNAcompete 7-mer binding Z-score
145 | CACUCAU | -0.89
146 | AAAACUC | -0.748
147 | UCGCAGU | -0.449
148 | GCUACAU | -0.402
149 | GCGGUAG | 1.58
150 | GGGCACG | 2.22
151 | UCUGUCA | -0.635
152 | ACACGAA | -0.275
153 | UCGGUCU | -0.653
154 | GAACUAC | -0.595
155 | AUGGGUG | 3.74
156 | GGGAUCG | 1.93
157 | GUCUCAG | -0.511
158 | AGGAAGU | 1.21
159 | UUUUCAC | -0.723
160 | CCCUUGA | -0.919
161 | CAAAGCC | -0.81
162 | AGAGUUG | 0.53
163 | CAGUGUA | 0.111
164 | AUAGUUA | -0.078
165 | CAUCACG | -0.508
166 | AAAUACC | -0.599
167 | CCGUCAA | -0.592
168 | AGUUAGC | -0.0743

Row | Sequence | RNAcompete 7-mer binding Z-score
169 | CUGGAGG | 1.11
170 | CGGCACA | 0.133
171 | UAGCUCU | -0.715
172 | AAUCCGG | -0.213
173 | UCCUUAG | -0.672
174 | GGCUUUU | -0.449
175 | GCGUAGU | 0.374
176 | GGGUCGC | 1.14
177 | ACUGCGC | -0.643
178 | GCUAGAC | -0.34
179 | CAAUUCG | -0.355
180 | GAAACCA | -0.00512
181 | AGGUACG | 0.909
182 | CCAAGUG | -0.133
183 | CUUAACA | -0.726
184 | CUUGAGU | -0.73
185 | UUAGAGG | 1.24
186 | AGAGUUC | -0.369
187 | UCUGUUU | -0.704
188 | UGAAUAG | 0.399
189 | GAAAGCA | 0.49
190 | GGGCGCC | 0.13
191 | GCACCGG | 0.61
192 | CCCUCUG | -0.737

Row | Sequence | RNAcompete 7-mer binding Z-score
193 | UUCUUGC | -0.93
194 | GCGUACG | 0.221
195 | AGUUGCG | 0.166
196 | CGUGGUA | 0.589
197 | AAUGCGC | -0.38
198 | AGGAGGG | 3.31
199 | CCUGCUC | -1.02
200 | GAAAGGU | 4.42
201 | GCCCUAU | -0.945
202 | CUACACC | -0.683
203 | CAUCUAA | -0.723
204 | CUACCUA | -0.748
205 | GUGCGCA | 0.428
206 | GAUCCUA | -0.701
207 | GUGAAUU | 0.162
208 | GGGUGAU | 3.16
209 | CCGACUA | -0.606
210 | CGCACCA | -0.744
211 | AGGAAAG | 2.81
212 | GGUACAA | 1.81
213 | AACCGUA | -0.653
214 | AUCGAUC | -0.562
215 | GUGCAGG | 2.24
216 | ACUAACA | -0.428

Row | Sequence | RNAcompete 7-mer binding Z-score
217 | UUUACAU | -0.57
218 | AUUUUAG | -0.628
219 | GACUCCG | -0.679
220 | UUAGAAG | 0.126
221 | GGGGGAG | 2.6
222 | GACCUUU | -1.05
223 | UACUGAC | -0.628
224 | GUGAGAA | 1.36
225 | UGGUAGC | 1.01
226 | GAGAAUG | 1.66
227 | AGUUAGU | 0.0204
228 | UUGGAUU | 0.159
229 | AGCGGCG | 1.61
230 | AUCCAGA | -0.307
231 | GGUACGU | 0.76
232 | AAACACG | -0.187
233 | ACAGAGU | 0.323
234 | UCAUUGC | -0.781
